Laboratory results as given in PubChem BioAssay AID1508623 (National Center for Advancing Translational Sciences (NCATS), 2021).
Among all 48,000 compounds or so, about 450 (0.94%) were called active. This list was built around the results that the source calls inconclusive (neither active nor inactive); the mix of calls is not that of the screen. The call rests on the fitted dose curve; in most records, active means well fitted inhibition curve with a large enough effect; inconclusive means small, poorly fitted or top-dose-only effect; inactive means no such curve, though single readings can be large or run the other way. Where the call is inconclusive, the potency comes from a doubtful curve fit.

assay: Primary qHTS for Identification of Small Molecule Inhibitors of Huntingtin Promoter Activity; conditions: HEK293 HTT promoter firefly luciferase reporter (activity 0% = vehicle and -100% = no light), 24 h; activity change, negative = inhibition: at 57.5 µM (top of the series); further: nearly all actives have a fitted effect of over 50% in size
Outline: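 Quantitative HTS used concentration series of up to 57.5 uM final on HEK293 luciferase reporter cells, 24 h at 37 degrees C. Readout was Dual-Glo firefly luminescence.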
Potency means the concentration at half of the fitted maximal effect; tags describe the fitted curve by direction and shape.

Potency, inactive:
CN(C)[C@@H](CCOc1cccc2ccccc12)c1ccccc1

Potency, active:
COc1ccccc1-c1cc2nc(C)c(CCC(=O)NCCc3ccc(SC)cc3)c(C)n2n1 20 µM

Potency, inconclusive:
O=C(c1ccccc1)c1cn(Cc2ccc(F)cc2)c2ccccc2c1=O 14.1 µM [inhibitor, partial curve], COc1ccc(C2=C(C)C(=NCCCN3CCN(c4cc(Cl)ccc4C)CC3)NS2(=O)=O)cc1 39.8 µM [inhibitor, single point], Cc1ccc(NC(=O)Cn2cc(S(=O)(=O)Cc3cccc(Cl)c3)c3ccccc32)cc1C 39.8 µM [inhibitor, single point], O=C(Nc1ccc(Cl)c(C(F)(F)F)c1)c1ccc2c(c1)CCN2S(=O)(=O)c1ccccc1 22.4 µM [inhibitor, single point], Cc1ccc2occ(CC(=O)Nc3ccc(S(=O)(=O)N4CCCC(C)C4)cc3)c2c1 (stereo not given) 28.2 µM [inhibitor, single point], COc1ccc(-c2noc(N3CCC(C(=O)Nc4ccc(OC)c(OC)c4)CC3)n2)cc1 1.26 µM [inhibitor, full curve], Cc1cccc(C)c1NC(=O)CN(Cc1ccc(Br)cc1)S(=O)(=O)c1ccccc1 28.2 µM [inhibitor, partial curve, poor fit], CCOC(=O)c1ccc(NS(=O)(=O)c2ccc3c(c2)OCCO3)cc1 31.6 µM [inhibitor, partial curve, poor fit], COc1ccc(OC)c(CCNC(=O)Cn2ccc3cc(S(=O)(=O)N4CCCCC4)ccc32)c1 25.1 µM [inhibitor, single point], COc1ccc(OC)c(-c2noc(N3CCN(c4cc(C)ccc4C)CC3)n2)c1 35.5 µM [inhibitor, partial curve, poor fit], Cc1ccc(NC(=O)Cn2c(=O)ccc3cc(S(=O)(=O)N4CCC(C)CC4)ccc32)c(C)c1 39.8 µM [inhibitor, single point], O=C(Nc1ccc(F)cc1F)c1ccc2c(c1)CCN2S(=O)(=O)c1ccc(Cl)cc1 31.6 µM [inhibitor, partial curve, poor fit], CCOc1ccc(CNC(=O)Cn2ccc3cc(S(=O)(=O)N4CCCCCC4)ccc32)cc1 12.6 µM [inhibitor, partial curve], COc1ccc(CCNS(=O)(=O)c2ccc(N3CCCCS3(=O)=O)cc2)cc1OC 25.1 µM [inhibitor, partial curve], CS(=O)(=O)N(CC(=O)NCCSCc1ccccc1)c1cc(C(F)(F)F)ccc1Cl 28.2 µM [inhibitor, single point], O=C(Cn1cnc2onc(-c3ccc(F)cc3)c2c1=O)Nc1cccc(C(F)(F)F)c1 28.2 µM [inhibitor, single point], COc1ccccc1CNC(=O)c1cc2cccc3c2n1CC(C)S3 (stereo not given) 35.5 µM [inhibitor, partial curve, poor fit], CCc1ccc(NC(=O)N2c3ccccc3Sc3ccccc32)cc1 39.8 µM [inhibitor, single point], CCN(Cc1ccccc1)S(=O)(=O)c1ccc2c(c1)CCCN2C(C)=O 31.6 µM [inhibitor, single point], CCC(=O)N1CCc2cc(S(=O)(=O)CCC(=O)N3CCN(c4cccc(Cl)c4)CC3)ccc21 39.8 µM [inhibitor, single point], Cc1cc(C)cc(NC(=O)c2oc3ccc4c(c3c2C)C(=O)CC(C)(C)O4)c1 2.24 µM [inhibitor, full curve], N=c1n(CCN2CCCCC2)c2ccccc2n1CC(O)COc1ccccc1 (stereo not given) 22.4 µM [inhibitor, partial curve], O=C(NCCc1csc(-c2cccc(F)c2)n1)c1ccccc1C(F)(F)F 39.8 µM [inhibitor, single point], Cc1cccc(-c2nc(CN3CCCC(C(=O)NCc4ccc(Cl)cc4)C3)c(C)o2)c1 (stereo not given) 39.8 µM [inhibitor, partial curve, poor fit], COc1cccc(C(=O)NC(c2ccc(Cl)cc2)c2cc(Cl)c3cccnc3c2O)c1 (stereo not given) 3.98 µM [inhibitor, full curve, poor fit], Cc1ccc(Cl)cc1NC(=O)Cn1c(=O)oc2cc(S(=O)(=O)N3CCCCCC3)ccc21 5.01 µM [inhibitor, partial curve], COc1ccc(-c2noc(C(C)NC(=O)c3ccco3)n2)cc1 (stereo not given) 28.2 µM [inhibitor, partial curve, poor fit], Cc1ccc2nc(NCCN)c3ncc(C)n3c2c1 12.2 µM [inhibitor, full curve], Cc1cccc2c1-c1sc(C(=O)NCCCN3CCN(c4cccc(Cl)c4)CC3)cc1CO2 22.4 µM [inhibitor, single point], Cc1ccc(OCC(=O)Nc2c(Cl)ccc3nsnc23)cc1C 25.1 µM [inhibitor, single point], CC(=O)c1cccc(Nc2c3c(nc4nc(-c5cccs5)nn24)CCCC3)c1 35.5 µM [inhibitor, partial curve, poor fit], COc1ccc(CNC(=O)c2ccc(Sc3ccc(Cl)cc3)c(NC(C)=O)c2)c(OC)c1 39.8 µM [inhibitor, single point], O=C1CN(C(=O)COc2ccc(Cl)cc2Cl)C(c2ccc(F)cc2)c2cc(F)ccc2N1 (stereo not given) 39.8 µM [inhibitor, single point], CC(C)S(=O)(=O)c1oc(-c2ccc(F)cc2)nc1S(=O)(=O)c1ccc(F)cc1 39.8 µM [inhibitor, single point], Cc1cccc(OCC(=O)N(Cc2cccc(Cl)c2)Cc2ccco2)c1C 28.2 µM [inhibitor, partial curve, poor fit], Cc1ccc(S(=O)(=O)c2nc(-c3ccccc3)oc2N2CCCCCC2)cc1 31.6 µM [inhibitor, partial curve, poor fit], CCOc1ccc(CCNC(=O)CCc2cn(Cc3ccc(C)cc3)c3ccccc23)cc1 35.5 µM [inhibitor, single point], COc1ccc(Nc2oc(-c3ccc(COc4ccc(OC)cc4)o3)nc2C#N)cc1 31.6 µM [inhibitor, partial curve, poor fit], CCCC(=O)Oc1c(Sc2ccc(Cl)cc2)c(C)nn1-c1ccccc1 22.4 µM [inhibitor, partial curve, poor fit], CC(C)(C)c1ccc(OCC(=O)N(Cc2ccco2)Cc2ccccc2F)cc1 28.2 µM [inhibitor, single point], Cc1cc(C(C#N)c2ccc(Cl)cc2)c(Cl)cc1NC(=O)c1cc(I)cc(I)c1O (stereo not given) 39.8 µM [inhibitor, single point], Fc1ccc(C2=NC(c3cccc(C(F)(F)F)c3)=Nc3ccccc3N2)cc1 28.2 µM [inhibitor, single point], Cc1cc(Nc2cccc(Cl)c2)nc2ccc(NC(=O)c3ccc(F)cc3Cl)cc12 35.5 µM [inhibitor, single point], O=C(Nc1ccccc1C(=O)OCc1cc(=O)n2ccsc2n1)c1cccc(F)c1 11.2 µM [inhibitor, partial curve, poor fit], CC(C)NS(=O)(=O)c1ccc(OCC(=O)N2CCN(c3ccccc3F)CC2)cc1 39.8 µM [inhibitor, single point], O=C(c1ccc(CS(=O)c2ccccc2Cl)o1)N1CCN(c2ccccc2F)CC1 (stereo not given) 10 µM [inhibitor, partial curve], COc1cc(C(=O)NCCSc2c(-c3ccccc3)[nH]c3ccccc23)cc(OC)c1OC 31.6 µM [inhibitor, partial curve], Cc1ccc(NC(=O)Cn2c(=O)nc(-c3ccccc3F)c3cc(Cl)ccc32)c(Br)c1 28.2 µM [inhibitor, single point]

Activity change, negative = inhibition, inactive:
CN1C(=O)Cc2cc(S(=O)(=O)CCC(=O)Nc3ccc(Cl)c(C(F)(F)F)c3)ccc21 -6.29%, COc1ccc(/C(C)=C/C(=O)O)c(OC)c1 3.57%, Cc1ccccc1NC(=O)Cn1c(=O)n(Cc2ccc3c(c2)OCO3)c(=O)c2ccc(C(=O)NC3CCCCC3)cc21 -10.3%, CCC1CCc2nc3sc(C(=O)Nc4ccc(C)cc4C)c(N)c3cc2C1 (stereo not given) -10.1%, Cc1c(NC(=O)OC[C@@H]2COCCN2)cn2ncnc(Nc3ccc4c(cnn4Cc4cccc(F)c4)c3)c12 -24.3%, C[C@@H](NCc1cc2ccccc2[nH]1)c1cccc2ccccc12 -9.71%, Cn1cc(C(=O)O)c(=O)c2cc(S(=O)(=O)N3CCCCC3)ccc21 -34.4%, CCOc1ccc(NC(=O)NCCCN2CCN(c3ccc(OC)cc3)CC2)cc1 -8.12%, Cc1ccc(-c2cc(C(=O)NCCc3ccccc3)c3ccccc3n2)cc1C 2.37%, CN(C)c1ccc(/C=C(\C#N)c2nc3ccccc3c(=O)[nH]2)cc1 78.2%
